Reference: PubChem BioAssay AID2675 (National Center for Advancing Translational Sciences (NCATS), 2010)
Out of some 280,000 compounds screened, about 100 (0.036%) were called active. Inconclusive results, whose numbers are uncertain, are shown with a selection of clear calls. The call rests on the fitted dose curve; in most records, active means well fitted inhibition curve with a large enough effect in the signal ratio, with a control signal flat (not every such curve was filed as active); inconclusive means small, poorly fitted or top-dose-only effect, or effect the other way, or a change in a side signal; inactive means no such curve, though single readings can be large or run the other way; the % refers to the signal ratio. Potencies beside an inconclusive call are fits to weak or partial responses and may not hold up. A note “side channel” means that the fit belongs to a control or component signal, not to the main read-out.

target: Muscleblind-like protein 1 (Homo sapiens) (UniProt Q9NR56); assay: qHTS Assay for Inhibitors of MBNL1-poly(CUG) RNA binding; conditions: TR-FRET MBNL1-His/biotin-(CUG)12 binding, 665/545 ratio; series mostly up to 57.5 µM
Chain of UniProt Q9NR56 (Q9NR56 whole entry, looked up): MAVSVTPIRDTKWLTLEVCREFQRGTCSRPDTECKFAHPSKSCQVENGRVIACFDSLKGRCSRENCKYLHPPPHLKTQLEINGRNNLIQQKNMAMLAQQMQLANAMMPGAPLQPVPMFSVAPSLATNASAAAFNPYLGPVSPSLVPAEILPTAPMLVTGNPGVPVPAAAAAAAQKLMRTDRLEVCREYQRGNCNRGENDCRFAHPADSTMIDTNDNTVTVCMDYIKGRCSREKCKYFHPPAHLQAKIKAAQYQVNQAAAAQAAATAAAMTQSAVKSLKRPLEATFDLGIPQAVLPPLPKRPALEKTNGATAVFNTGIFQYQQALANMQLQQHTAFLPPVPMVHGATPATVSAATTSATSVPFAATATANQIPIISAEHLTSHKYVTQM
Outline: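 Compounds (final 92 nM to 58 uM) are added to His-tagged MBNL1 and biotin-(CUG)12, then terbium anti-His antibody and streptavidin-XL665 (5 nM final). After 60 min at room temperature, the 665/545 nm ratio is read.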
Potency means the concentration at half of the fitted maximal effect; tags describe the fitted curve by direction and shape or compound fluorescence and quenching.

Compound | Potency
Cc1cc(C)n(C(=O)CCCCCCCC(=O)n2nc(C)cc2C)n1 | inconclusive: 8.91 µM [quencher, side channel, single point]
CN(C)CCSc1nc(-c2ccccc2)nc2c1COC(C)(C)C2 | inactive
Cc1c(NC(=O)c2noc(C(C)C)c2[N+](=O)[O-])c(=O)n(-c2ccccc2)n1C | inconclusive: 28.2 µM [quencher, side channel, single point]
Cc1cccc(OCCn2cc(/C=N/NC(=O)c3ccncc3)c3ccccc32)c1 | inactive
COc1ccc2c(c1)c1ncn(Cc3ccco3)c(=O)c1n2C | inconclusive: 6.31 µM [quencher, side channel, partial curve]
Cc1ccc(Sc2ccc(C(=O)N(C)C)cc2[N+](=O)[O-])cc1 | inconclusive: 15.8 µM [quencher, side channel, partial curve]
CCOC(=O)Cc1csc(NS(=O)(=O)c2ccc3c4c(cccc24)C(=O)N3CC)n1 | inconclusive: 39.8 µM [quencher, single point]
Cc1ccccc1NC(=O)/C=C/c1ccc([N+](=O)[O-])s1 | inconclusive: 28.2 µM [quencher, side channel, partial curve, poor fit]
COc1ccc(NC(=O)Nc2cccc3ccccc23)cc1S(N)(=O)=O | inconclusive: 25.1 µM [quencher, side channel, partial curve]
Nc1cc(N)nc(SCCOc2ccccc2F)n1 | inconclusive: 11.2 µM [quencher, side channel, partial curve]
FC(F)(F)c1cccc(/C=N/NC(=S)NC2CCCCC2)c1 | inactive
O=C(CSc1nc(Cc2ccccc2)nc2ccccc12)c1ccc2c(c1)OCCO2 | inconclusive: 39.8 µM [quencher, side channel, single point]
CCc1c(C)sc(NC(=S)Nc2cccnc2)c1C(=O)OC | inactive
Cc1cc(C(=O)Cn2nnc3ccccc3c2=O)c(C)n1-c1c(C)n(C)n(-c2ccccc2)c1=O | inconclusive: 31.6 µM [quencher, side channel, single point]
CCOC(=O)Cc1csc(NC(=S)NC(=O)c2ccccc2Br)n1 | inconclusive: 39.8 µM [quencher, side channel, single point]
Nc1ccc(-c2ccc(N)c([N+](=O)[O-])c2)cc1[N+](=O)[O-] | inconclusive: 3.98 µM [quencher, side channel, partial curve]
O=c1c(-c2ccccc2)[n+]([O-])c2ccccc2n1O | inconclusive: 17.8 µM [quencher, side channel, partial curve]
Cc1nc2ccc([N+](=O)[O-])cc2c(=O)n1Cc1ccc(Br)cc1 | inconclusive: 2.82 µM [quencher, side channel, full curve, poor fit]
CCc1ccc(NC(=S)Nc2cccc3cnccc23)cc1 | inconclusive: 20 µM [quencher, side channel, partial curve]
C=C1CSc2nc(=O)c3c4c(sc3n21)CCC4 | inactive

Compound | Potency
CC(/C=N/NC(=O)c1cccnc1)=C\c1ccccc1 | inconclusive: 15.8 µM [quencher, side channel, partial curve]
CN1CCN(c2ccc([N+](=O)[O-])c(-n3nc(-c4ccccc4)c4ccccc4c3=O)c2)CC1 | inconclusive: 14.1 µM [quencher, partial curve]
COC(=O)c1ccc(Cl)c(-c2ccc(/C=N/NC(=O)Nc3ccccc3)o2)c1 | inconclusive: 0.794 µM [fluorescent, side channel, single point]
O=C(Nc1cccnc1)C1CCN(S(=O)(=O)c2ccc(Cl)cc2)CC1 | inactive
COc1cccc(C2CNC3(CCCC(C)C3)c3[nH]c4ccccc4c32)c1OC (centres undefined) | inactive
O=C(NCCCN1CCCC1=O)c1cc(-c2cccnc2)nc2ccc(Cl)cc12 | inconclusive: 28.2 µM [quencher, side channel, single point]
O=C(Nc1ccc(Cl)cc1)Nc1nnc(CSCc2ccccc2)s1 | inconclusive: 11.2 µM [fluorescent, side channel, partial curve]
O=[N+]([O-])c1cnn2cc(Br)cnc12 | inconclusive: 28.2 µM [quencher, partial curve]
CCOC(=O)c1ccc(NC(=O)CSc2nnc(C3CC3)n2CC)cc1 | inconclusive: 8.91 µM [quencher, side channel, single point]
CCn1c(=O)c([N+](=O)[O-])c(NCCN(C)C)c2ccccc21 | inconclusive: 17.8 µM [quencher, side channel, partial curve]
CN(/N=C/c1cc(Cl)cc(Cl)c1O)C(=S)NC(C)(C)C | inactive
Cc1cc(C)nc(SCC(=O)OCN2C(=O)c3ccccc3C2=O)n1 | inconclusive: 28.2 µM [quencher, side channel, single point]
N=C1S/C(=C\c2ccc(-c3cccc(Cl)c3)o2)C(=O)N1c1nccs1 | inconclusive: 0.1 µM [fluorescent, side channel, full curve, poor fit]
COc1ccc(/C=N/NC(=O)COc2ccccc2-c2ccccc2)cc1 | inconclusive: 35.5 µM [quencher, side channel, single point]
O=C(COC(=O)Cc1ccc(Cl)cc1Cl)NCCC1=CCCCC1 | inconclusive: 0.178 µM [quencher, side channel, partial curve, poor fit]
C/C(=C\c1ccc2c(c1)OCO2)C(=O)c1c(C)cc(C)[nH]c1=O | inconclusive: 20 µM [quencher, side channel, partial curve]
O=Cc1ccc(Sc2nnc(-c3ccccc3)o2)c([N+](=O)[O-])c1 | inconclusive: 14.1 µM [quencher, side channel, partial curve]
COc1ccc(/C=N/Nc2cc(C)nc(N3CCOCC3)n2)cc1OC | inactive
N/C(=N/OS(=O)(=O)c1ccc([N+](=O)[O-])cc1)c1ccncc1 | inconclusive: 22.4 µM [quencher, side channel, partial curve]
